Reference: PubChem BioAssay AID1768 (National Center for Advancing Translational Sciences (NCATS), 2009)
The whole screen tested about 270,000 compounds, of which about 620 (0.23%) were called active. Inconclusive means that the source gave no clear call. Such entries were picked first, then a sample of the others. Calls follow the shape of the dose curve; as a rule, active = well fitted inhibition curve with a large enough effect in the polarisation, with a control signal flat (not every such curve was filed as active); inconclusive = small, poorly fitted or top-dose-only effect, or effect the other way, or a change in a side signal; inactive = no such curve, though single readings can be large or run the other way; the % refers to the polarisation. A potency beside an inconclusive call is a rough fit, not a confirmed value. A note “side channel” means that the fit belongs to a control or component signal, not to the main read-out.

Target: Menin (Homo sapiens) (UniProt O00255)
UniProt O00255, sequence (O00255 whole entry, looked up): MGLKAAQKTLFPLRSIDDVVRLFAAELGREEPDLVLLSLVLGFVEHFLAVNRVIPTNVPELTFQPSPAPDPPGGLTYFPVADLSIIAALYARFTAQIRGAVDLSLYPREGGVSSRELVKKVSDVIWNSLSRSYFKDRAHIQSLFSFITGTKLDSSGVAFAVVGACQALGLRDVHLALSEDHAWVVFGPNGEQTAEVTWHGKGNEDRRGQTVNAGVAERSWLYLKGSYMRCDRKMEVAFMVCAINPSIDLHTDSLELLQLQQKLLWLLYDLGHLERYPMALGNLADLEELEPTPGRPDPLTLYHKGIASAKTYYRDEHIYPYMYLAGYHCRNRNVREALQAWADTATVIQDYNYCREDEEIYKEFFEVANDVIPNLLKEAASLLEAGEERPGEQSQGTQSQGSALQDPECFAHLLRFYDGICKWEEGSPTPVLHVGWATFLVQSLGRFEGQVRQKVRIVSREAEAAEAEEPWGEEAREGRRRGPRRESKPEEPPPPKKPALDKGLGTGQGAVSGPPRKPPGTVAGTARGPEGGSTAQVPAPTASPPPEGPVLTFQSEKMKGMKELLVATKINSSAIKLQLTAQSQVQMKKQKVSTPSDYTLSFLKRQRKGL
Assay: qHTS Assay for Inhibitors Targeting the Menin-MLL Interaction in MLL Related Leukemias: Competition With Texas Red Labeled MLL-derived Mutant Peptide; as to FP activity change, negative = inhibition: % of control where 0% means no effect
Settings: fluorescence polarization; FP activity change, negative = inhibition: at 61.6 µM (top of the series)
Potency is read from the fitted curve at half-maximal effect; tags tell the direction and shape of the fitted curve or compound fluorescence and quenching.

Potency, inconclusive:
NC(=O)c1ccc(-n2nnnc2SCC(=O)Nc2ccccc2F)cc1 39.8 µM [fluorescent, single point], CCOc1ccc(C(=O)Nc2ccccc2OC(F)F)cc1 8.91 µM [inhibitor, partial curve], COc1ccc(NC(=O)Cn2nnc(C(=O)NCc3cccs3)c2N)c(OC)c1 39.8 µM [fluorescent, side channel, single point], COc1ccc(C(=O)Nc2ccccc2C(=O)NC(Cc2c[nH]c3ccccc23)C(=O)O)cc1 (stereo not drawn) 14.1 µM [quencher, side channel, single point], CCOc1cc(CNc2ccc(O)cc2)cc(Br)c1OCc1ccccc1F 14.1 µM [quencher, side channel, partial curve], Cc1c(C(c2ccccc2O)c2c(C)n(C)n(-c3ccccc3)c2=O)c(=O)n(-c2ccccc2)n1C 15.8 µM [fluorescent, side channel, partial curve], CCCCCCC1CCC(C(=O)NC(CCSC)C(=O)NC(C(=O)OC)C(C)C)CC1 (stereo not drawn) 7.94 µM [fluorescent, side channel, partial curve], CCOC(=O)c1cccc(NC(=O)Nc2ccc(OCC)cc2)c1 10 µM [quencher, side channel, partial curve], Cc1ccc(C)c(NC(=O)/C(C#N)=C/c2ccc(Sc3nncn3C)c([N+](=O)[O-])c2)c1 10 µM [quencher, side channel, partial curve], Cc1ccc(C(=O)CNc2ccc(Cl)cc2)cc1 17.8 µM [inhibitor, partial curve], CC1(OC(=O)C2CCCC2)C(=O)C=C2C=C(c3ccsc3)N(c3cccc(C#N)c3)C=C2C1=O (stereo not drawn) 7.08 µM [quencher, side channel, single point], Cc1ccc(/C=C/C(=O)Nc2cccc(S(=O)(=O)N3CCOCC3)c2)o1 28.2 µM [quencher, side channel, single point], CC(C)CNc1nc(Oc2ccc(=O)n(-c3ccccc3)n2)nc(N2CCOCC2)n1 25.1 µM [fluorescent, side channel, single point], S=C(NCc1ccco1)N1CCN(c2nc(-c3ccc(Cl)cc3)cs2)CC1 7.08 µM [quencher, side channel, partial curve], c1ccc(CNC2=NCCC2)nc1 39.8 µM [inhibitor, single point], CC1CCc2c(C(=O)Nc3nccs3)csc2C1 (stereo not drawn) 28.2 µM [quencher, side channel, partial curve], COc1ccc(-n2nc(C(=O)NCC(=O)Nc3cccc(Cl)c3)c3ccccc3c2=O)cc1OC 11.2 µM [fluorescent, side channel, partial curve], CCO[C@@H]1OC(C(=O)N2CCCCCCC2)=C[C@H](c2ccc(C(F)(F)F)cc2)[C@H]1CCCO 17.8 µM [fluorescent, side channel, partial curve], CCOC(=O)CCCCC1=CC2=CC(=O)C(C)(O)C(=O)C2=CO1 (stereo not drawn) 6.31 µM [inhibitor, single point], Cc1ccc(NC(=O)NCc2ccc3[nH]c(C)cc3c2)cc1 17.8 µM [quencher, side channel, single point], Cc1ccc(C(=O)N(CC(=O)NC2CCCCC2)c2ccccc2C)s1 10 µM [fluorescent, side channel, partial curve], Cc1cc(=O)cc2oc3cc(N)c(-c4c(C)cc(O)cc4O)c(C)c3nc1-2 14.1 µM [fluorescent, side channel, partial curve], O=C(CC1CS(=O)(=O)CC1CC(=O)Nc1ccc2c(c1)OCCO2)Nc1ccc2c(c1)OCCO2 (stereo not drawn) 15.8 µM [quencher, side channel, partial curve], COc1ccccc1N1CCN(C(=O)COc2cccc(C)c2C)CC1 7.94 µM [fluorescent, side channel, partial curve], CC1=CC(C)(C)Nc2ccc(OC(=O)CN3C(=O)c4ccccc4C3=O)cc21 31.6 µM [quencher, side channel, single point], COc1ccc(/C=N/NC2=NS(=O)(=O)c3ccccc32)cc1OC 25.1 µM [quencher, side channel, single point], C(=N\Nc1nc2ccccc2[nH]1)/c1cccs1 25.1 µM [quencher, side channel, partial curve], CCOC(=O)N1CCN(C(=O)c2ccc(Oc3ccc([N+](=O)[O-])cc3)cc2)CC1 10 µM [inhibitor, partial curve, poor fit], CCCN(CCC)S(=O)(=O)c1ccc(NC(=O)c2cc(C(=O)OC)cc([N+](=O)[O-])c2)cc1 7.08 µM [quencher, side channel, partial curve], NC(=O)c1oc2ccccc2c1NC(=O)c1nc2ccccc2s1 22.4 µM [inhibitor, single point], COc1ccc(/C=C2/SC(=S)N(Cc3ccccc3)C2=O)cc1O 7.94 µM [quencher, partial curve], CC(C)Cc1ccc(C(C)C(N)=NCCc2ccccc2)cc1 (stereo not drawn) 15.8 µM [fluorescent, side channel, partial curve], Cc1ccc(/C=C2/C(=O)c3ccc(C(=O)O)cc3C2=O)o1 20 µM [quencher, side channel, partial curve], O=C(Nc1cc(Sc2nc3ccccc3s2)cc([N+](=O)[O-])c1)c1ccccc1 10 µM [quencher, side channel, partial curve], CN(C(=O)c1ccc2c(c1)OCO2)C1(C(=O)NC2CCCCC2)CCCCC1 39.8 µM [inhibitor, single point], O=C(NNC(=S)NCc1ccc(Cl)cc1)c1ccc(Br)o1 12.6 µM [quencher, side channel, partial curve], O=C(NNc1nc2cc3c(cc2s1)OCO3)c1ccccc1 22.4 µM [quencher, side channel, single point], N#Cc1cc(Sc2ccccn2)c([N+](=O)[O-])cc1C#N 28.2 µM [quencher, side channel, single point], COc1ccc(Nc2nc(N)nc(CSC(=S)N3CCN(c4ccccc4)CC3)n2)cc1 8.91 µM [quencher, side channel, partial curve], CCOC(=O)C1=NN(c2ccccc2)C2=NC(C)=C(C(=O)OC)C(c3ccc(C)cc3)N12 (stereo not drawn) 14.1 µM [fluorescent, side channel, partial curve], O=C(Cc1ccc(Cl)c(Cl)c1)Nc1ccc2[nH]c(=O)[nH]c2c1 3.55 µM [inhibitor, full curve], Cc1nc(SCC(=O)NC2CCCC2)c2c(C)c(C)sc2n1 39.8 µM [inhibitor, single point], Cn1c(=O)[nH]c(=O)c2c1[nH]c(=S)n2CCCc1ccccc1 39.8 µM [inhibitor, single point], COc1ccc(Cn2c(O)c(/C=N/NC(=O)c3cccnc3)c3ccccc3c2=O)cc1 17.8 µM [quencher, side channel, partial curve], COc1ccc(O)c(/C=N/Nc2nc3ccccc3[nH]2)c1 22.4 µM [quencher, side channel, single point], COc1cc2cc(C(=O)N/N=C/c3ccc(F)cc3)[nH]c2cc1OC 20 µM [quencher, side channel, single point], COc1ccccc1N(O)C1CC(=O)N(c2ccc(Br)cc2)C1=O (stereo not drawn) 31.6 µM [quencher, side channel, single point], O=[N+]([O-])c1cccc(-c2ccc(/C=N/NC(=S)Nc3ccccc3)o2)c1 6.31 µM [quencher, side channel, partial curve], CC(=O)c1c(O)c2ccccc2n(C2CCCCC2)c1=O 22.4 µM [quencher, side channel, single point], Cc1nn(-c2ccc(F)cc2)c(Cl)c1/C=C(\CCC(=O)O)c1nc2ccccc2s1 4.47 µM [inhibitor, single point]

FP activity change, negative = inhibition, inactive:
c1ccc(-c2ccc(OCCN3CCCC3)cc2)cc1 -20.2%, CCSc1ccc2cc(OC)ccc2[n+]1CC -22.1%, CCOC(=O)c1[nH]c2ccc(OC)cc2c1NS(=O)(=O)c1ccc(Cl)s1 11.4%, CCC(=O)NC(c1ccc([N+](=O)[O-])cc1)c1c(O)ccc2ccccc12 (stereo not drawn) 36.2%, COc1ccc(C(c2nnnn2C2CCCC2)N2CCC(C)CC2)c(OC)c1 (stereo not drawn) 2.77%, OCCC1CN(Cc2ccc(F)cc2)CCN1CCCc1ccccc1 (stereo not drawn) -29.4%, Cc1nc(COC(=O)c2ccc(CO)cc2)cs1 -8.85%, COc1cc(C(=O)Nc2ccc(-c3nnc(-c4ccco4)o3)cc2)cc(OC)c1OC 4.16%
